{"source": "PubChem BioAssay AID2060907", "about": "(Molecular Pharmacology Branch, DTP, NCI, 2025)", "system": "388556-164-R-J1-PDC complex spheroid viability", "assay": "Anticancer human tumor 388556-164-R-J1-PDC patient-derived colon adenocarcinoma cell line growth inhibition [RAS]", "conditions": "for viability, T/C: stronger effect = lower value; for IC50: compound alone", "from_the_text": "RAS pathway inhibitors in Combinations in Complex Spheroids\nA high-throughput screen of multi-cell type tumor spheroids was designed to identify active combinations of RAS pathway inhibitors and targeted small molecules. Complex spheroids include a stromal component modeled by human endothelial cells (HUVEC) and fibroblasts modeled by human mesenchymal stem cells (MSCs). The concentration ranges selected for each drug and investigational agent were based upon clinically achievable concentrations if the clinical Cmax of the agent was known.\nCompounds. The drugs and investigational agents: abemaciclib (NSC768073), cobimetinib (NSC768068), divarasib (GDC6063, NSC841802), docetaxel (NSC628503), GDC-1971 (RLY-1971, NSC841576), gemcitabine (NSC613327), inavolisib (NSC800729), ipatasertib (NSC767898), KB-0742 (NSC834161), MRTX-1133 (NSC836407), osimertinib (NSC779217), RMC-4630 (NSC839698), RMC-6236 (NSC851965), RMC-6291 (NSC852671), Ro-3306 (NSC812927), sapanisertib (NSC764658), SN-38 (NSC673596), staurosporine (NSC755774), SY5609 (NSC837396), and tovorafenib (DAY101, NSC766906), were obtained from the National Cancer Institute (NCI) Developmental Therapeutics Program Chemical Repository. The FDA-approved anticancer drug set is available from the NCI Developmental Therapeutics Program. […] The stock solutions were prepared in dimethyl sulfoxide (DMSO, Sigma-Aldrich, St. Louis, MO, cat. D2650) at 800-fold the tested concentration and stored at -70 degrees C prior to their use. All drugs and investigational agents were tested over a range starting from a high concentration at or near the clinical Cmax and decreasing in half-log increments. If the clinical Cmax for an agent had not been determined, the highest concentration tested was 10 microM.\nCell Culture. All cells were maintained in an incubator at 37 degrees C and 5% CO2 with 95% humidity. The PDC lines were cultured according to standard operating procedures established by the NCI PDMR. All PDCs were thawed and cultured in Matrigel-coated flasks prepared with a working solution of 1X Ham's F-12 nutrient mix, without supplementation (Invitrogen, Waltham, MA, cat. 11765054), 100 U/mL penicillin-streptomycin (Invitrogen, cat. 15140122), and 2.5% Matrigel (Corning Inc., Corning, NY, cat. 354248) for the first three passages. The 362531-283-R-J2-PDC and 782815-120-R-J1-PDC lines were cultured in 6C/Colon 1B media, which includes advanced DMEM/F-12 (Thermo Fisher Scientific, cat. 12634028), 10 mM HEPES (Thermo Fisher Scientific, cat. 15630080), 1X GlutaMAX supplement (Thermo Fisher Scientific, cat. 35050061), 0.1 mg/mL primocin (InvivoGen, San Diego, CA, cat. ant-pm-2), 10% defined fetal bovine serum, heat inactivated (HyClone Laboratories Inc., Logan, UT, cat. SH30070.03HI), 50% L-WRN conditioned media (ATCC, cat. CRL-3276), 1.25 mM N-Acetyl-L-cysteine (Sigma-Aldrich, cat. A9165), 10 mM nicotinamide (Sigma-Aldrich, cat. N0636), 1X B-27 supplement (Thermo Fisher Scientific, cat. 17504044), 1X N-2 supplement (Thermo Fisher Scientific, cat. 17502048), 50 ng/mL human EGF (Thermo Fisher Scientific, cat. PHG0311), and 10 microM Y-27632 dihydrochloride (Tocris Bioscience, cat. 1254). The K12877-001-R-J1-PDC line was cultured in 6I media, which includes all 6C/Colon 1B media plus 10 ng/mL human FGF-10 (PeproTech, cat. 100-26), 1 ng/mL human FGF-2 (PeproTech, cat. 100-18B), 1 µM prostaglandin E2 (Tocris Bioscience, cat. 2296), […] hydrocortisone (Sigma-Aldrich, cat. H4001), and […] bovine insulin (Sigma-Aldrich, cat. I6634). The K86415-001-R-J1-PDC line was cultured in 6D media, which includes all 6C/Colon 1B media components minus the L-WRN conditioned media. The 485176-168-R4-J1-PDC was cultured in PANC media, which includes all 6C/Colon 1B media plus 100 ng/mL human FGF-10 (PeproTech, cat. 100-26), 500 nM SB-431542 (Selleckchem, cat. S1067), and 10 nM gastrin (Tocris Bioscience, cat. 3006). […]", "note": "For part of its entries the source gives two or more results. The other results are left out here. The source may hold further records. The values listed for one entry are repeated measurements (runs, samples, wells, individuals or studies). A date in brackets names the month of the test.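 Note: spheroids exposed to compound for 7 days before readout.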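 Throughout, for viability, T/C: 100% = DMSO vehicle control luminescence.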", "data": [{"smiles": "O=C(c1ccc(F)c(F)c1Nc1ccc(I)cc1F)N1CC(O)([C@@H]2CCCCN2)C1", "values": [{"measurement": "viability, T/C", "setting": "compound alone 0.00316 µM", "value": "97.9%, 105% [2024-08] and 77.7%, 98.6% [2024-09]"}]}, {"smiles": "C=CC(=O)N1CCN(c2nc(OCC3CCCN3C)nc3c(F)c(-c4nc(N)cc(C)c4C(F)(F)F)c(Cl)cc23)C(C)C1", "note": "(stereo not given)", "values": [{"measurement": "viability, T/C", "setting": "compound alone 0.01 µM", "value": "89.1% [2024-08] and 103, 104, 96.8, 107, 112, 99.4, 93.8, 90.7, 117, 97% [2024-09]"}]}, {"smiles": "CC(C)NCC(C(=O)N1CCN(c2ncnc3c2C(C)CC3O)CC1)c1ccc(Cl)cc1", "note": "(stereo not given)", "values": [{"measurement": "viability, T/C", "setting": "compound alone 0.0316 µM", "value": "109%, 103% [2024-08] and 82.6%, 122% [2024-09]"}]}, {"smiles": "CC(C)n1nc(-c2ccc3oc(N)nc3c2)c2c(N)ncnc21", "values": [{"measurement": "IC50", "value": "59.2 nM, 49.7 nM [2024-08] and 100 nM, > 100 nM [2024-09]"}, {"measurement": "viability, T/C", "setting": "compound alone 0.001 µM", "value": "77.4%, 100% [2024-08] and 104%, 97.7% [2024-09]"}]}, {"smiles": "C=CC(=O)Nc1cc(Nc2nccc(-c3cn(C)c4ccccc34)n2)c(OC)cc1N(C)CCN(C)C", "values": [{"measurement": "viability, T/C", "setting": "compound alone 0.00316 µM", "value": "104%, 95.3% [2024-08] and 76.9%, 97.7% [2024-09]"}]}, {"smiles": "CC(Nc1ccc2c(c1)OCCn1cc(N3C(=O)OCC3C(F)F)nc1-2)C(N)=O", "note": "(stereo not given)", "values": [{"measurement": "viability, T/C", "setting": "compound alone 0.0316 µM", "value": "94.2%, 92.7% [2024-08] and 83.9%, 110% [2024-09]"}]}, {"smiles": "Cc1nc(N2CCC3(CC2)COC(C)C3N)c(CO)nc1Sc1ccnc(N)c1Cl", "note": "(stereo not given)", "values": [{"measurement": "IC50", "value": "9.27 µM, 2.18 µM [2024-08] and 3.83 µM, 5.08 µM [2024-09]"}, {"measurement": "viability, T/C", "setting": "compound alone 0.0316 µM", "value": "107%, 97.2% [2024-08] and 75.8%, 105% [2024-09]"}]}, {"smiles": "CCC(CC)c1cc(NC2CCC(N)C2)n2nccc2n1", "note": "(stereo not given)", "values": [{"measurement": "viability, T/C", "setting": "compound alone 3.16 µM", "value": "55.6%, 15.3% [2024-08] and 47.1%, 38.1% [2024-09]"}]}]}
